Laboratory results: PubChem BioAssay (NCI)
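Tested at 5 concentrations; 48 h exposure; 96-well plates; endpoints linearly interpolated, else capped at highest concentration. The concentration for 50% growth inhibition is given as GI50. TGI: total growth inhibition.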

Test system: NCI-H322M lung
Experiment: inhibition of tumour cell growth, NCI panel, 48 h

## COc1cccc(/C=N/NC(=O)c2ccc3nc(-c4ccc(Cl)cc4)[nH]c3c2)c1O
  GI50: 0.843 µM
  TGI: 2.7 µM

## Cc1[nH]nc2ccc3nc(-c4cn[nH]c4C(F)(F)F)c4c(c3c12)CCCC4
  GI50: 4.1 µM
  TGI: 16 µM
